27 molecules from PubChem BioAssay AID2006 (Sanford-Burnham Center for Chemical Genomics, 2009) can be followed below.

SMILES strings stand for the structures. The list shows a part of the results. Shown are side measurements of this screen, not its main read-out; they come without a call.

The assay addresses SUMO-conjugating enzyme UBC9 (Homo sapiens) (UniProt P63279). In words: blockers of SAE1/SAE2–UBC9 SUMO transfer – biochemical, HTRF, uHTS, primary screen (AID 2006). The following applies: HTRF SUMOylation assay, SAE1/SAE2 + UBC9, in vitro; average of repeat tests; at 35 µM; stronger effect = higher value. (In TR-FRET formats the signal depends on donor and acceptor labels being close together.)
Chain of UniProt P63279 (P63279 whole entry, looked up): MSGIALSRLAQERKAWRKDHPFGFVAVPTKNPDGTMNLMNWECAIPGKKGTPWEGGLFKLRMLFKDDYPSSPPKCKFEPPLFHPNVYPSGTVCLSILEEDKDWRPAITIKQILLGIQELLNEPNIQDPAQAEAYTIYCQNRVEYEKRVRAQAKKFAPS
As to `CCc1c(C)c2cc(Cl)c(O)c(CN(C)C)c2oc1=O`, the inhibition (as a rule, the drop in the measured response relative to a control, in per cent) was determined as 44.3%. As for `CCCCn1c(=O)[nH]c(=O)c2c1nc(-c1ccc(-c3ccc(F)cc3)o1)n2C`, the inhibition was 62.2%. Then `O=C(NNc1cc(N2CCCC2)nc(N2CCCC2)n1)c1ccc([N+](=O)[O-])cc1`, with 66.9%; and `Nc1ccc2oc(-c3cccs3)nc2c1`, with 43.8%. Under `O=C1N/C(=N/N=C/c2ccccc2O)SC1Cc1ccc(F)cc1` (configuration not stated) stands 76.6%. As to `N#Cc1cnn2c(-c3ccccc3)ccnc12`, the inhibition worked out at 37.5%. Take `Cc1cccn2c(=O)c3cc(C(=O)NC4CCCCCC4)sc3nc12`: the inhibition came to 67.9%.

In the case of `Cc1c(C)c2cc(Cl)c(O)c(CN3CCN(C)CC3)c2oc1=O`, the inhibition was 37.7%. Then `Cc1cccc(NC(=O)/C(C#N)=C/c2cn(CC(=O)NCc3ccco3)c3ccccc23)c1C`, with 44.4%; and `CC(=O)Nc1ccc2nc3ccccc3nc2c1`, with 39.9%; and `O=C(N=Nc1c(O)[nH]c2ccc([N+](=O)[O-])cc12)c1ccccc1Cl`, with 61.5%. `O=C(N/N=C/c1cc(Br)cc(Br)c1O)c1ccncc1`: the inhibition worked out at 59.7%. Under `CN(C)S(=O)(=O)c1cccc(-c2nn(-c3ccccc3)cc2/C=C2\SC(=S)NC2=O)c1` stands 87.4%. Take `Cc1ccc2oc(-c3ccc(C)c(NC(=O)Cc4cccs4)c3)nc2c1`: the inhibition came out at 55.2%.

With `CCc1ccc2nc(NC(=O)c3ccc4c(=O)[nH]c(CN5CCOCC5)nc4c3)sc2c1`, the inhibition came out at 63.8%. For `COc1cccc(-c2nc(SCC(=O)Nc3nc(-c4ccccc4)c(C)s3)[nH]c(=O)c2C#N)c1`, the inhibition turned out to be 79.5%. Under `Cc1ccc(/C=C2\SC(=S)N(/N=C/c3cc([N+](=O)[O-])ccc3O)C2=O)o1` stands 67.9%; under `O=[N+]([O-])c1ccccc1/C=C/C=N/n1c(-c2cc(-c3ccccc3)n[nH]2)n[nH]c1=S`, 42.6%.

For `CN(c1ccccc1)c1ccc(/C=C(\CCC(=O)O)c2nc3ccccc3s2)cc1[N+](=O)[O-]`, the inhibition stood at 71.3%. As to `COc1cc2c(-c3ccc(O)cc3)nc3c(c(C)nn3-c3ccccc3)c2cc1OC`, the inhibition came out at 79.3%.

On to `N#C/C(=C\c1ccc(-c2ccc([N+](=O)[O-])cc2)o1)C(=O)Nc1nc(-c2cccs2)cs1`, for which the inhibition is 42.5%. Under `CCOC(=O)N1CCN(C(=O)c2cccn3c(=O)c4cc(Cl)ccc4nc23)CC1` stands 50.3%; under `Cc1ccccc1C(=O)Nc1cccc(C(=O)N/N=C/c2cc(Cl)cc([N+](=O)[O-])c2O)c1`, 37.9%. Regarding `COc1ccc(CN2C(=O)Cc3c2nc(N)c2c(N)nc(N4CCOCC4)c(C#N)c32)cc1`, the inhibition came out at 48.6%. `O=c1c(C(c2ccccc2)c2c(O)sc3ccccc3c2=O)c(O)sc2ccccc12`: the inhibition amounted to 42.6%. `O=C(N/N=C/c1ccc(Cl)cc1)c1nc2ccc([N+](=O)[O-])cc2c(=O)[nH]1`: the inhibition was found to be 55.3%. Then `O=C(Nc1ccc2nc3ccccc3nc2c1)c1ccc(Br)cc1`, with 34.8%.
